This passage reports binding results from publication PMC12903445.

These are yes or no findings as the source states them, for the method shown. Some results given as binding are weak or reduced against the parent protein; the word gives no strength. Sequences can lack the tags named with a protein.

Holding throughout (experiment): two-hybrid; co-transformation of pGBKT7 (BD bait) and pGADT7 (AD prey) into S. cerevisiae Y2H Gold; growth on selective triple dropout (–LTH) medium, 30°C
In experiment [1] the target is T1, αKNL2-N (aa 1–363) as yeast two-hybrid bait (A. thaliana) (UniProt F4KCE9).
T1 sequence: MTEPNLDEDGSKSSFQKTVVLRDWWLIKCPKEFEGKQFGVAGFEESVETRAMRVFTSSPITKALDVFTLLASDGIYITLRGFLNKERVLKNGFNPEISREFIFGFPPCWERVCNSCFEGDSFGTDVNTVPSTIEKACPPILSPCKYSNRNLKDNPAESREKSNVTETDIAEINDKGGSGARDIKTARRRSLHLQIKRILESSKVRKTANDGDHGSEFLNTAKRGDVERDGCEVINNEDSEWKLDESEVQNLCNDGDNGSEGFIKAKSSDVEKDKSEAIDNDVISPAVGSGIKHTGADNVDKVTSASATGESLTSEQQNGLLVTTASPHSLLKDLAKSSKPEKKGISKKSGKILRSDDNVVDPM

Experiment [2] concerns the target T2, αKNL2 (full-length) as yeast two-hybrid bait (A. thaliana) (UniProt F4KCE9).
T2 sequence: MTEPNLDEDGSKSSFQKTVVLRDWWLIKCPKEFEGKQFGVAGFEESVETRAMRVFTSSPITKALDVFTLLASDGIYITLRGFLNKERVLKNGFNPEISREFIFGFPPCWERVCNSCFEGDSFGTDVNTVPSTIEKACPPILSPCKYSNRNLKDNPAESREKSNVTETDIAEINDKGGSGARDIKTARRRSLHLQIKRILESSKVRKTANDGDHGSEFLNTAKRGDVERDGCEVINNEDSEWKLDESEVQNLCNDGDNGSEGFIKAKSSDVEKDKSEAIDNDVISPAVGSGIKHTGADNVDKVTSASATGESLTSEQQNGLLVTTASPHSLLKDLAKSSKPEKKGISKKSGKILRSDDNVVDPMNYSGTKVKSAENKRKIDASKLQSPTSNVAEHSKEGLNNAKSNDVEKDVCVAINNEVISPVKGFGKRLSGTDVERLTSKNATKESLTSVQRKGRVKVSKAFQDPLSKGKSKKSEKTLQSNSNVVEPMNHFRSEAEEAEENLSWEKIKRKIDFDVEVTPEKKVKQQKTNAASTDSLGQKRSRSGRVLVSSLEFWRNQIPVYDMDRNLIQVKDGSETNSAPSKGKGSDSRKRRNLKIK

For experiment [3], the target named is CENH3 as yeast two-hybrid fusion (AD prey and BD bait) (A. thaliana) (UniProt Q8RVQ9).

B1: CENH3 as yeast two-hybrid fusion (AD prey and BD bait) (protein, UniProt Q8RVQ9 1-178)
chain: MARTKHRVTRSQPRNQTDAAGASSSQAAGPTTTPTRRGGEGGDNTQQTNPTTSPATGTRRGAKRSRQAMPRGSQKKSYRYRPGTVALKEIRHFQKQTNLLIPAASFIREVRSITHMLAPPQINRWTAEALVALQEAAEDYLVGLFSDSMLCAIHARRVTLMRKDFELARRLGGKGRPW
In the case of B1, the binding entry in experiment [1] is “no binding”; in experiment [2] it was “no binding”; in experiment [3] it was “binds”.
